# Values joined by “and” are separate entries in the source; they are usually repeats but may differ in a detail not shown here. Equal values may be shown once. Among all 410,000 compounds or so, about 5,000 (1.2%) were called active. Inconclusive means that the source gave no clear call. Such entries were picked first, then a sample of the others. The call rests on the fitted dose curve; in most records, active means well fitted inhibition curve with a large enough effect; inconclusive means small, poorly fitted or top-dose-only effect; inactive means no such curve, though single readings can be large or run the other way. Potencies of inconclusive entries are doubtful fits and often do not repeat.
# Assay: qHTS for Inhibitors of TGF-b; further: nearly all actives have a fitted effect of over 65% in size
# Settings: HepG2 CAGA-GFP TGF-b/SMAD3 reporter, GFP fluorescence, 18 h, TGF-beta stimulated, 500 pg/mL final; series mostly up to 46.1 µM; activity, negative = inhibition: at the top concentration
# How it was run: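 Cell-based qHTS in HEPG2 carrying a CAGA-GFP Smad reporter; compounds added before 500 pg/mL final TGF-beta, 18 h incubation at 37 degrees C, GFP fluorescence quantified per cell by imaging cytometry.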
# On the % scale 0 is the no-effect control and ±100 the full control effect; potency means the concentration at half of the fitted maximal effect; tags describe the fitted curve by direction and shape.
SMILES,"activity, negative = inhibition",Potency
Cc1ccc(OCCCC(=O)N(C)CC(=O)Nc2ccccc2Cl)cc1,inactive: -14.1%,–
Cc1cc(N=Nc2ccc3ccccc3c2)ccc1O,–,"inconclusive: 17.8 µM [inhibitor, single point]"
O=C(O)c1nnn(-c2cccc(C(F)(F)F)c2)c1-c1ccccc1,inactive: -0.531%,–
COC(=O)CN(c1cc(Cl)ccc1OC)S(=O)(=O)c1ccc(OC)c(OC)c1,inactive: 2.6%,–
COc1ccc(CN2CSC(=S)N(Cc3ccc(OC)cc3)C2)cc1,–,"inconclusive: 10 µM [inhibitor, partial curve, poor fit]"
CCn1c(SCc2nc(-c3ccccc3)no2)nnc1-c1cccs1,inactive: -0.668%,–
Cc1cc(Br)cn2c(Cc3ccsc3)c(-c3ccco3)nc12,–,active: 6.31 µM
COc1ccc(-c2onc(C)c2C)cc1S(=O)(=O)N1CCN(c2cc(C)ccc2C)CC1,–,"inconclusive: 2.82 µM [inhibitor, partial curve, poor fit]"
O=C(CN1CCCc2ccccc21)N/N=C/c1ccccc1O,–,"inconclusive: 7.94 µM [inhibitor, partial curve]"
Cc1c(Cl)ccc2sc(N3CCN(C(=O)C4CC4)CC3)nc12,–,active: 17.8 µM
COc1ccc(-c2cc3nc(C)c(CCC(=O)NC(C)c4ccccc4)c(C)n3n2)c(OC)c1 (stereo not given),–,"inconclusive: 3.16 µM [inhibitor, single point]"
Cc1cccc(NC(=S)N2CCN(S(=O)(=O)c3ccc(F)cc3)CC2)c1,inactive: 0.07%,–
CS(=O)(=O)c1ccc(C(=O)N2CCN(S(=O)(=O)c3ccc(C4CCCCC4)cc3)CC2)cc1,inactive: -1.87%,–
COc1cccc(NC(=O)CSc2c3c(nc4ccccc24)CCCC3)c1,–,"inconclusive: 35.5 µM [inhibitor, partial curve, poor fit] and inconclusive: 17.8 µM [inhibitor, partial curve, poor fit]"
Cc1cc(-c2ccccc2)c2c(=O)n(-c3ccccc3)[nH]c2n1,inactive: -8.71%,–
CCOc1ccc(N(CC)S(=O)(=O)N2CCCC(C(=O)Nc3ccc(OC)c(Cl)c3)C2)cc1 (stereo not given),–,"inconclusive: 7.08 µM [inhibitor, partial curve, poor fit]"
Cc1cc(C)cc(SCc2noc(C(=O)NCC3CC3)c2C(=O)NCC2CC2)c1,–,"inconclusive: 22.4 µM [inhibitor, single point]"
Cc1ccc(S/C=C\C(=O)c2ccccc2)cc1,–,"inconclusive: 11.2 µM [inhibitor, partial curve, poor fit]"
CCOC(=O)SC1=N/C(=C\c2ccc(N(C)C)cc2)C(=O)S1,inactive: 2.1%,–
COc1ccccc1Oc1cn[nH]c1-c1ccc(OCC(=O)NN)cc1O,inactive: 0.0916%,–
O=C1CC(NCCN2CCOCC2)C(=O)N1Cc1ccc(N2CCCC2=O)cc1 (stereo not given),–,"inconclusive: 3.16 µM [inhibitor, partial curve, poor fit]"
CCC(=O)Nc1ccc(NC(=O)CSc2nc3c(c(=O)n(C)c(=O)n3C)n2CC)cc1,–,"inconclusive: 35.5 µM [inhibitor, single point]"
O=C(NCCc1ccccc1)C1CCN(c2nc3ccccc3nc2C(F)(F)F)CC1,inactive: -22.3%,–

SMILES,"activity, negative = inhibition",Potency
O=[N+]([O-])c1ccc(/C=N/n2cn[nH]c2=S)cc1,inactive: -1.62%,–
COc1ccccc1N1CCN(c2ncnc3c2cnn3-c2ccc(C)cc2)CC1,inactive: -3.13%,–
O=C(c1cnn(C(=O)COc2ccc(Cl)cc2)c1)c1ccccc1O,inactive: 0%,–
C=CCOc1cccn2c(N(C)C(=O)c3ccccc3F)c(CC)nc12,–,"inconclusive: 7.08 µM [inhibitor, partial curve, poor fit]"
CCCCC(=O)Nc1ccnc(-c2cccnc2)n1,–,"inconclusive: 6.31 µM [inhibitor, single point]"
C=CCOc1nc2sc(C)c(C)c2c(=O)n1-c1ccccc1,inactive: -13.9%,–
COc1ccc(/C=N/Nc2ccc([N+](=O)[O-])cc2)cc1Cn1cc([N+](=O)[O-])cn1,–,"inconclusive: 35.5 µM [inhibitor, single point]"
C/C(=N\Nc1ncc(Cl)cc1Cl)c1ccc(N2CCOCC2)cc1,inactive: 18.8%,–
CCN(CC(=O)Nc1ccc(NC(C)=O)cc1)C(=O)CCCc1nc2ccccc2s1,inactive: 0.389%,–
O=[N+]([O-])c1cc(C(F)(F)F)ccc1NCCCCNS(=O)(=O)c1ccc(Cl)cc1,–,"inconclusive: 15.8 µM [inhibitor, single point]"
CS(=O)(=O)N1CCC(C(=O)N2CCN(C(c3ccccc3)c3ccccc3)CC2)CC1,inactive: 2.12%,–
Cc1ccc(SSc2cc(C)ccc2N)c(N)c1,–,"inconclusive: 11.2 µM [inhibitor, partial curve, poor fit]"
Cc1c(C(=O)Nc2ccc(F)c(Cl)c2)sc2nc3n(c(=O)c12)CCC3,–,"inconclusive: 3.55 µM [inhibitor, full curve]"
COC(=O)N1C(=O)[C@](c2ccc(OC)cc2)(C(C)C)N1C(=O)OC,–,"inconclusive: 10 µM [inhibitor, partial curve]"
CCCCC[C@@H]1C=C(C(=O)O)[C@H](c2ccc(Cl)cc2)N1S(=O)(=O)c1ccc(C)cc1,–,"inconclusive: 35.5 µM [inhibitor, single point]"
Cc1ccc(CNC(=O)CNC(=S)N(Cc2ccccc2)Cc2ccccc2F)cc1,–,"inconclusive: 22.4 µM [inhibitor, single point]"
CCC(=O)NCCN1CCN(C(=O)CC)CC1,inactive: 2.24%,–
Cc1ccc(S(=O)(=O)NCC(c2ccco2)N2CCc3ccccc32)cc1 (stereo not given),–,"inconclusive: 35.5 µM [inhibitor, single point]"
CN(C)C(CNC(=O)CSc1nnc(-c2ccco2)o1)c1ccccc1 (stereo not given),–,"inconclusive: 2.82 µM [inhibitor, full curve]"
COc1ccccc1-c1cc(C(=O)N2CCN(c3ccc(F)cc3)CC2)no1,–,"inconclusive: 10 µM [inhibitor, partial curve, poor fit]"
CCCCOc1ccc(C(=O)NCCc2sc3nc(-c4ccc(OC)cc4)nn3c2C)cc1,–,"inconclusive: 0.398 µM [inhibitor, full curve, poor fit]"
Cn1c(-c2ccc3ccccc3n2)nc2cnccc21,–,"inconclusive: 35.5 µM [inhibitor, single point]"
